Reference: PubChem BioAssay AID624417 (National Center for Advancing Translational Sciences (NCATS), 2012)
In all, about 410,000 compounds went through this assay and about 6,400 (1.6%) were called active. The shares of active, inactive and inconclusive entries below differ from those in the screen. Calls follow the shape of the dose curve; as a rule, active = well fitted inhibition curve with a large enough effect; inconclusive = small, poorly fitted or top-dose-only effect; inactive = no such curve, though single readings can be large or run the other way. Potencies of inconclusive entries are left out as doubtful fits.

What follows are compounds tested against Glucagon-like peptide 1 receptor (Homo sapiens) (UniProt P43220) (assay: qHTS of GLP-1 Receptor Inverse Agonists (Inhibition Mode)). Conditions: HEK293 GLP-1R CRE-luciferase, luminescence, 24 h, GLP-1R form is constitutively active; activity change, negative = inhibition: at 38.3 µM (top of the series) unless noted.
Procedure, shortened: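 qHTS in 1536-well format: reporter HEK293 cells expressing constitutive GLP-1R activity in DMEM + 10% Nu serum, 24 hr with compounds at 37 deg C, luminescence read after 12 min with detection reagent.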
% is scaled to controls: 0 for no effect and ±100 for the full control effect; potency is read from the fitted curve at half-maximal effect; tags tell the direction and shape of the fitted curve.
Also: nearly all actives have a fitted effect of over 55% in size.

Chain of UniProt P43220 (P43220 whole entry, looked up): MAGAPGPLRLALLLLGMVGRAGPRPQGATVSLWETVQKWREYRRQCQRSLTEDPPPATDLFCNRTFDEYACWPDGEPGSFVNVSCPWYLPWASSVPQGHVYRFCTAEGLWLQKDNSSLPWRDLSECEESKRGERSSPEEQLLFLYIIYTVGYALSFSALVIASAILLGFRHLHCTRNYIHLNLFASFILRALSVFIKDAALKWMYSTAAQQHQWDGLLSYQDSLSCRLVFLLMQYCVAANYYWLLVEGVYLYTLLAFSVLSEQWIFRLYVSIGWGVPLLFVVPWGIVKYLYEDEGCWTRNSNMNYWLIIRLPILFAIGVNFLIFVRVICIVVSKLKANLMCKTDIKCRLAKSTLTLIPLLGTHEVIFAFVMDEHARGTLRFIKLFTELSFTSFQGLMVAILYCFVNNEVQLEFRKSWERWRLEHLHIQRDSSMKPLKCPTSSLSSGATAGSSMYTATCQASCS

Structure (SMILES)	activity change, negative = inhibition	Potency
Cc1ccc(S(=O)(=O)NC(CCC(N)=O)C(=O)NCc2ccc3c(c2)OCO3)c(C)c1 (centres undefined)	inactive: -4.45%	–
COc1ccc(C)cc1NC(=O)C(OC(=O)C1CC1)c1ccccc1 (centres undefined)	–	inconclusive [inhibitor, partial curve, poor fit]
CC(C)Cn1c(-c2cc(Br)ccc2F)nc2c1c(=O)[nH]c(=O)n2CC(C)C	–	inconclusive [inhibitor, single point]
CC(C)N(CC#CCC(O)(c1ccccc1)C1CCCC1)CCO (centres undefined)	–	inconclusive [inhibitor, single point]
CN(Cc1ccccc1)/C(=N/O)c1cccc(Cl)c1	–	inconclusive [inhibitor, partial curve, poor fit]
Cc1ccc(C(=O)CC(C(=O)O)n2cnc([N+](=O)[O-])n2)cc1 (centres undefined)	–	inconclusive [inhibitor, single point]
COc1ccc(OC(C)C(=O)N(C)Cc2nc(-c3ccccc3)no2)cc1 (centres undefined)	inactive: -28.9%	–
Cc1cc2c(cc1C)-c1nnnn1C(N1CCC(Cc3ccccc3)CC1)C(=O)N2 (centres undefined)	–	inconclusive [inhibitor, single point]
CCCCCCNC(=O)O[C@H]1C[C@H](C(=O)OC)[C@H](C(=O)OC)C2CN(S(=O)(=O)c3ccc(C)cc3)C[C@@]21O (some centres undefined)	–	inconclusive [inhibitor, single point]
CCCCCCCCN1C(=O)[C@H](CC(=O)N2CCOCC2)C[C@@]2(C(=O)OCC)CCCC=C12	–	inconclusive [inhibitor, single point]
Cc1ccc([N+](=O)[O-])cc1S(=O)(=O)N1CCn2cccc2C1c1ccc(F)c(F)c1 (centres undefined)	–	inconclusive [inhibitor, single point]
COc1ccc([C@H]2CC(=O)C=C(c3ccc(SC)cc3)C2)cc1OC	inactive: 5.1%	–
O=C(C(=NNc1ccccc1)c1ccccc1)c1ccccc1	–	inconclusive [inhibitor, full curve, poor fit]
CCCOc1ccc(NC(=O)CC2C(=O)N(Cc3ccccc3)C(=S)N2Cc2cccs2)cc1 (centres undefined)	–	inconclusive [inhibitor, partial curve, poor fit]
CC/C=C/C(=O)N1CC2(CC(c3cccc(NC(=O)CC(c4ccccc4)c4ccccc4)c3)=NO2)C[C@@H]1C(N)=O (some centres undefined)	–	inconclusive [inhibitor, single point]
COCCNc1nc(SCc2ccccc2)nc2sc3c(c12)CCC3	–	inconclusive [inhibitor, single point]
CCc1ccccc1N(C(=O)CNC(=O)c1ccco1)C(C(=O)NC1CCCC1)c1cccnc1 (centres undefined)	inactive: 7.49%	–
Cc1occc1-c1nnc(SCC(=O)Nc2nccs2)n1CCc1ccccc1	–	inconclusive [inhibitor, partial curve, poor fit]
Cc1ccc(C)c(CN2C(=O)c3ccccc3Sc3ccc(C(=O)NCc4ccc5c(c4)OCO5)cc32)c1	–	inconclusive [inhibitor, full curve, poor fit]
COc1ccc(Cn2c(CO)cnc2SCC(=O)NCc2ccco2)cc1	inactive: -10.1%	–

Structure (SMILES)	activity change, negative = inhibition	Potency
O=C(NC12CC3CC(CC(C3)C1)C2)c1ccc(-c2ccc(Cl)cc2)o1	–	inconclusive [inhibitor, partial curve]
Clc1ccccc1OCc1nnc(-c2ccccc2)o1	–	inconclusive [inhibitor, single point]
COc1ccc(/C=C(/NC(=O)c2ccccc2)C(=O)N2CCC(C)CC2)cc1	–	inconclusive [inhibitor, partial curve, poor fit]
Cc1cc(C)cc(N(CC(=O)NCc2ccco2)S(=O)(=O)c2c(C)noc2C)c1	–	inconclusive [inhibitor, single point]
CC(C)(CN1CCN(c2ccccc2)CC1)NS(=O)(=O)c1ccccc1	–	inconclusive [inhibitor, single point]
CN(C)/C=N/c1nc(-c2ccc3ccccc3c2)cs1	–	inconclusive [inhibitor, single point]
CC(CCc1ccc(O)cc1)NC1C2CC3CC(C2)CC1C3 (centres undefined)	–	inconclusive [inhibitor, single point]
COc1ccc(CNC(=O)C2CC(c3ccc(C(F)(F)F)cc3)=NO2)cc1 (centres undefined)	–	inconclusive [inhibitor, partial curve, poor fit]
COc1ccc(-c2nc3c(C)cc(Br)cn3c2Cc2cccc(F)c2)cc1OC	–	inconclusive [inhibitor, single point]
CCCCNc1c(-c2ccc(-c3cccc(Cl)c3)cc2)nc2ccccn12	–	inconclusive [inhibitor, partial curve, poor fit]
CCCCC(=O)N(C)c1c(CC)nc2c(OCCC3CCCCC3)cccn12	–	inconclusive [inhibitor, partial curve, poor fit]
CC(=O)c1ccc(Sc2nnnn2-c2ccccc2)c([N+](=O)[O-])c1	–	inconclusive [inhibitor, single point]
Cc1cc(Cl)ccc1OCC(=O)Nc1cccc(S(=O)(=O)NC2=NCCCCC2)c1	–	inconclusive [inhibitor, partial curve]
Cc1ccc(S(=O)(=O)Nc2c(C)cc([N+](=O)[O-])cc2C)cc1	inactive: -7.02%	–
COC(=O)[C@@H](Cc1ccccc1)NC(=O)NCCc1ccccc1	–	inconclusive [inhibitor, single point]
CC1=C(C(=O)OCc2ccccc2)C(/C=C/c2ccccc2)NC(=S)N1 (centres undefined)	–	inconclusive [inhibitor, partial curve]
Cc1cccc(OCC(O)CN2CCN(c3ccccn3)CC2)c1C (centres undefined)	–	inconclusive [inhibitor, single point]
O=c1c2ccccc2nnn1Cc1ccccc1Cl	–	inconclusive [inhibitor, single point]
Cc1ccc2onc(CC(=O)N3CCN(c4cccc(C)c4C)CC3)c2c1	–	inconclusive [inhibitor, partial curve, poor fit]
COc1ccccc1N1CCN(C(=O)c2cc3ccccc3[nH]2)CC1	–	inconclusive [inhibitor, partial curve, poor fit]

Structure (SMILES)	activity change, negative = inhibition	Potency
COc1ccc(/C=C/C(=O)c2ccc(O)cc2)cc1CN1CCOCC1	–	inconclusive [inhibitor, single point]
CCS(=O)(=O)c1ccc2oc(SCC(=O)NCCc3ccc(F)cc3)nc2c1	inactive: -28.4%	–
Cc1cc(C)c2nc(C(F)(F)F)nc(NCCCN3CCOCC3)c2c1	–	inconclusive [inhibitor, partial curve, poor fit]
COc1ccc(Cl)cc1S(=O)(=O)N1CCC(C(=O)NCCc2ccccc2)CC1	–	inconclusive [inhibitor, single point]
Cc1cccc(CN2CCN(C(=O)c3cccc4ccccc34)CC2)c1	–	inconclusive [inhibitor, partial curve, poor fit]
COC(=O)CSc1nc(N)c2c3c(sc2n1)C(c1ccccc1)SC(c1ccccc1)C3 (centres undefined)	–	inconclusive [inhibitor, single point]
O=C(COC(=O)c1ccccc1OCc1ccc(Cl)cc1)NCC1CCCO1 (centres undefined)	–	inconclusive [inhibitor, partial curve, poor fit]
COC(=O)[C@@]12C[C@@H](CC(=O)NCCCCc3ccccc3)C(=O)N(Cc3cccc4ccccc34)C1=CCC(C)(C)C2	–	inconclusive [inhibitor, partial curve, poor fit]
CC[C@]12c3[nH]c4cc(-c5ccco5)ccc4c3CCN1C(=O)[C@@H](CC(=O)NCC13CC4CC(CC(C4)C1)C3)C[C@@H]2C(=O)N1CCN(C(=O)c2ccco2)CC1	–	inconclusive [inhibitor, single point]
Cc1cc(N)n2nc(-c3ccc(C(C)(C)C)cc3)cc2n1	–	inconclusive [inhibitor, partial curve, poor fit]
O=C(CN1C(=O)S/C(=C\c2ccccc2)C1=O)NNC(=O)c1ccccc1O	inactive: 2.19%	–
Cc1cccc2cc3c(N)c(C(=O)N4CCCc5ccccc54)sc3nc12	–	inconclusive [inhibitor, partial curve, poor fit]
Cc1ccc(Nc2ccc(S(=O)(=O)N3CCOCC3)cc2[N+](=O)[O-])c(C)c1	–	inconclusive [inhibitor, partial curve]
Cc1ccn2c(NC3CCCC3)c(-c3ccccn3)nc2c1	–	inconclusive [inhibitor, single point]
Cc1ccc2nc(NC(=O)C3CCN(S(=O)(=O)c4cc([N+](=O)[O-])ccc4Cl)CC3)sc2c1	–	inconclusive [inhibitor, single point]
CCC(C)NCCOCCOc1ccc(Br)cc1C (centres undefined)	–	inconclusive [inhibitor, partial curve, poor fit]
COCc1ccc(C(=O)N2CCCC(C(=O)c3ccc(SC)cc3)C2)s1 (centres undefined)	–	inconclusive [inhibitor, single point]
O=C(/C=C/c1ccccc1O)c1ccccc1	–	inconclusive [inhibitor, partial curve, poor fit]
CCCCOc1ccc(S(=O)(=O)N2CCCCC2)cc1	–	inconclusive [inhibitor, partial curve, poor fit]
